Laboratory results: patent publication US20090304590A1 (published 2009)

B1: HER146 (Fc fusion)
chain: [about 100 residues not shown]SNSYYYFDYWGQGTLVTVSSGGGGSGGGGSGGGGSALSSELTQDPAVSVALGQTVRITCQGDSLRNFYPSWYQQKPGQAPVLVIYGKNIRPSGIPDRFSGSGSGSTASLTITGAQAEDEADYYCNSRDSSGKHMGVVFGGGTKLTVLGDVR[human IgG1 Fc with changes not shown]
notes: SMIP; also called Her0146; Her 46
B2: HER085 (Fc fusion)
chain: [about 100 residues not shown]GGSGSDYWGQGTMVTVSSGGGGSGGGGSGGGGSALNFMLTQPHSVSGSPGKTVTISCTRSSGYIDSKYVQWYQQRPGSAPTTVIYEDNRRPSGVPDRFSGSIDSSSNSASLTISGLETEDEADYYCQSYDDTNVVFGGGTKVTVLGDVR[human IgG1 Fc with changes not shown]

What was measured:
[1] = target: T1, Her018P (Her2 ECD with a deletion in the CR2 (Domain IV) region, mIgG2a Fc tail) (human; murine, UniProt P04626 in part); test: BIACORE SPR, 25 C
T1 construct: also called 1.8 (Dimer); not shown: murine IgG2a Fc tail (and any junction to it)

Her155 (Monomer) = target: T2, Her155 (Monomer) (UniProt P04626 in part, limits assumed); test: BIACORE SPR, 25 C
T2 construct: extracellular domain; also called monomeric Her2 ECD; monomeric HER2 receptor

1.6 (Dimer) = test: BIACORE SPR, 25 C
[2] = target: T3, Her008P (full-length Her2 ECD with mIgG2a Fc tail) (human; murine, UniProt P04626 in part); test: BIACORE SPR, 25 C
T3 construct: also called SIIS; SIIS (Dimer); not shown: murine IgG2a Fc tail

Full length HER2 (ErbB2) = target: T4, Full length HER2 (ErbB2) (human, UniProt P04626); test: cell staining at 200 nM, JIMT-1 and other cell lines
T4 construct: Endogenous HER2 of human cancer cell lines (SKBR3, BT474, MDA-MB-361, JIMT-1 and others); also called cell surface Her2

Binder | Kd [1] | Kd (Her155 (Monomer)) | Kd (1.6 (Dimer)) | Kd [2] | binding result (Full length HER2 (ErbB2))
B1 | 2.8 nM | 193 nM | 4.2 nM | 4.14 nM | –
B2 | – | – | – | – | binds
